Assay results taken from PubChem BioAssay AID504332 (National Center for Advancing Translational Sciences (NCATS), 2011).
Where “and” joins values, the source holds several entries; their conditions need not be identical. Equal values may be shown once. Hit rate of the full screen: of about 350,000 compounds, about 31,000 (8.9%) were called active. The inconclusive results got no clear call from the source; some entries with a clear call stand among them for comparison. Calls follow the shape of the dose curve; as a rule, active = well fitted inhibition curve with a large enough effect; inconclusive = small, poorly fitted or top-dose-only effect; inactive = no such curve, though single readings can be large or run the other way. Potencies of inconclusive entries are doubtful fits and often do not repeat. More than one record can exist for a structure, and the calls need not agree.

The compounds below were run against Histone-lysine N-methyltransferase EHMT2 (Homo sapiens) (UniProt Q96KQ7) (assay: qHTS Assay for Inhibitors of Histone Lysine Methyltransferase G9a). Settings: G9a H3K9 monomethylation, AlphaScreen, 2 h; activity, negative = inhibition: at 59 µM (top of the series) unless noted.
In short: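 AlphaScreen read-out: biotin-H3K9 peptide (500 nM) methylation by 20 nM enzyme with 20 uM SAM, 2 h at room temperature after 15 min compound preincubation; anti-monomethyl H3K9 antibody plus donor/acceptor beads, 10 min dark.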
% is scaled to controls: 0 for no effect and ±100 for the full control effect; potency is read from the fitted curve at half-maximal effect; tags tell the direction and shape of the fitted curve.
Also: nearly all actives have a fitted effect of over 75% in size.

Chain of UniProt Q96KQ7 (Q96KQ7 whole entry, looked up): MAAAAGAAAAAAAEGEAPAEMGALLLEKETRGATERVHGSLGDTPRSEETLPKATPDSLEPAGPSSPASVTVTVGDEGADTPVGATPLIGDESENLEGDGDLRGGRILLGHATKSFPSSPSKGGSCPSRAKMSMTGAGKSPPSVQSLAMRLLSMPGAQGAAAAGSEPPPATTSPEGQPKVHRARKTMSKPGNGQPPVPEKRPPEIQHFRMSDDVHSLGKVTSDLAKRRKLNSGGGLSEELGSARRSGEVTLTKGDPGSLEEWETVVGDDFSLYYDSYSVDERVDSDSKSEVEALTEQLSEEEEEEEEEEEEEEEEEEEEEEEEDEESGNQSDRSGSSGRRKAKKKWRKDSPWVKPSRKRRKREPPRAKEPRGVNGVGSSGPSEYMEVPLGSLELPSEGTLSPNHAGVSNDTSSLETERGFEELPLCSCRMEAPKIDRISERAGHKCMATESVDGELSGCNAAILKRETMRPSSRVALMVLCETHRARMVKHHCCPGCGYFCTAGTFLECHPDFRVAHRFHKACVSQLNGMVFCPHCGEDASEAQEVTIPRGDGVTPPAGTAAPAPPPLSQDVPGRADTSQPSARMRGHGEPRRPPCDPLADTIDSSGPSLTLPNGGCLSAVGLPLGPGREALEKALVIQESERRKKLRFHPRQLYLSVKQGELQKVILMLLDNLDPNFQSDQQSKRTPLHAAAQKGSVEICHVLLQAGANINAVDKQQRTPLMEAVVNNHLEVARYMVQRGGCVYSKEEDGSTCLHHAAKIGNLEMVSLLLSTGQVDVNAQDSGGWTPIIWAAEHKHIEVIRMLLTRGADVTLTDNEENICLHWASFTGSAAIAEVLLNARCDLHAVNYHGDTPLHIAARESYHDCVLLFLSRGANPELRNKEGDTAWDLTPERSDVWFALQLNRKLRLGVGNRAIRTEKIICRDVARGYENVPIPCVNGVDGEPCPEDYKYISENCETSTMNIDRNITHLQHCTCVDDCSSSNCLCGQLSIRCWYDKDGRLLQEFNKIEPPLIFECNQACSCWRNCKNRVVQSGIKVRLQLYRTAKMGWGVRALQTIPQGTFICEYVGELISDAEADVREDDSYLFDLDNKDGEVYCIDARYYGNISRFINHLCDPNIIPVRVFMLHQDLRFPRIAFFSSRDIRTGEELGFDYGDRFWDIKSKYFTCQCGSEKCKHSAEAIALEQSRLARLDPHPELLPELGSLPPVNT

Row | SMILES | Potency | activity, negative = inhibition
1 | CCOc1ccc(S(=O)(=O)Nc2cccc(C(=O)N3CCN(c4ccc(OC)cc4)CC3)c2)cc1 | active: 11.2 µM | –
2 | CCOC(=O)c1c(-c2ccccc2)csc1N1C(=O)Nc2ccccc2N1O | inconclusive: 0.794 µM [inhibitor, full curve, poor fit] | –
3 | Cc1ccc(C(=O)O)cc1NC(=O)c1nsc2ccccc12 | inconclusive: 11.2 µM [inhibitor, partial curve] | –
4 | COCCSc1ccccc1C(=O)NCCCn1ccnc1 | inconclusive: 10 µM [inhibitor, single point] | –
5 | COc1ccc(NC(=O)CSc2nc(-c3cc(OC)c(OC)c(OC)c3)[nH]c2-c2ccc(F)cc2)cc1 | inconclusive: 10 µM [inhibitor, partial curve] | –
6 | COc1cc(NC(=O)CN2CCN(S(=O)(=O)c3ccc(Br)cc3)CC2)cc(OC)c1 | – | inactive: -2.68%
7 | O=C(c1nnsc1S(=O)c1ccc(Cl)cc1)N1CCOCC1 (stereo not given) | active: 31.6 µM | –
8 | O=C(COC(=O)Cc1c[nH]c2ccccc12)NC1CCS(=O)(=O)C1 (stereo not given) | inconclusive: 44.7 µM [inhibitor, partial curve] | –
9 | O=C(CCN1C(=O)/C(=C/c2ccccc2)SC1=S)NNC(=O)c1cccnc1 | inconclusive: 2 µM [inhibitor, full curve] | –
10 | CCc1nnc(NS(=O)(=O)c2ccc(NCc3cc(Cl)ccc3O)cc2)s1 | inconclusive: 89.1 µM [inhibitor, single point] | –
11 | COc1ccc(CCNC(=O)COc2coc(CN3c4ccccc4CC3C)cc2=O)cc1OC (stereo not given) | inconclusive: 89.1 µM [inhibitor, partial curve, poor fit] | –
12 | COc1ccc(CNS(=O)(=O)c2cc3c(cc2Cl)N(C(C)=O)CCO3)cc1 | – | inactive: 7.13%
13 | O=C(CSc1nc(-c2ccccc2)cn1-c1ccccc1F)Nc1ccc(F)cc1 | inconclusive: 10 µM [inhibitor, partial curve] | –
14 | COc1ccc(N(CC(=O)Nc2cc(C)cc(C)c2)S(=O)(=O)c2ccccc2[N+](=O)[O-])c(OC)c1 | inconclusive: 22.4 µM [inhibitor, full curve] | –
15 | CN1CCc2c(sc(/N=C/c3ccco3)c2C(N)=O)C1 | inconclusive: 89.1 µM [inhibitor, single point] | –
16 | O=C(COC(=O)c1ccc2c(c1)C(=O)N(Cc1ccco1)C2=O)NCC(F)(F)F | – | inactive: -5.9% [at 102 µM]
17 | CCOC(=O)CSc1nnc(NC(=O)c2cc([N+](=O)[O-])cc([N+](=O)[O-])c2)s1 | active: 25.1 µM | –
18 | C=CCC(CC(O)COCCC)C(=O)NNC(=S)Nc1ccccc1 (stereo not given) | inconclusive: 56.2 µM [inhibitor, partial curve, poor fit] | –
19 | CCOC(=O)C1=C(C)OC(N)=C(C#N)C1c1cc2c(cc1Br)OCO2 (stereo not given) | inconclusive: 89.1 µM [inhibitor, single point] | –
20 | Cc1ccc(C(=O)N/C(=C/c2ccc(-c3cccc([N+](=O)[O-])c3)o2)C(=O)NC(C)C)cc1 | inconclusive: 25.1 µM [inhibitor, single point] | –
21 | Cc1cccc(C2CN(C)CCc3c2cc(O)c(O)c3Cl)c1 (stereo not given) | active: 22.4 µM and active: 23.8 µM | –
22 | CN(C)c1ccc(/C=N/N(Cc2ccccc2)c2ccccc2)cc1 | inconclusive: 31.6 µM [inhibitor, partial curve, poor fit] | –

Row | SMILES | Potency | activity, negative = inhibition
23 | COc1cc2nc(N(CCN(C)C)C(=O)c3ccc4ccccc4c3)sc2cc1OC | active: 44.7 µM | –
24 | CC1CCCC(NC(=O)CN2C(=O)NC(C)(c3ccccc3)C2=O)C1C (stereo not given) | inconclusive: 56.2 µM [inhibitor, partial curve] | –
25 | CC(=O)c1ccc(C(=O)Nc2ccc3c(c2)C(=O)NC3=O)cc1 | inconclusive: 89.1 µM [inhibitor, single point] | –
26 | COc1ccc(-c2ccc(/C=N/NC(=O)Cc3nnc(N)s3)o2)cc1Cl | active: 20 µM | –
27 | COc1cccc(C2/C(=C(/O)c3ccccc3)C(=O)C(=O)N2CCCC(=O)O)c1 (stereo not given) | – | inconclusive: -56.2% [inhibitor]
28 | Cc1ccc(-n2ncc(C(=O)NCCN3CCc4ccccc4C3)c2C2CCN(C(=O)OC(C)(C)C)CC2)cc1C | inconclusive: 7.08 µM [inhibitor, partial curve, poor fit] | –
29 | COc1ccc(NC(=O)CN2CCN(CC(=O)Nc3ccccc3F)CC2)c(OC)c1 | inactive and active: 31.6 µM | –
30 | O=c1c2cc3c(cc2nc2sc(Nc4ccccc4)nn12)OCO3 | – | inactive: 3.41%
31 | O=C1c2ccccc2-c2onc3c(Oc4ccccc4)cc(O)c1c23 | inconclusive: 2.82 µM [inhibitor, partial curve, poor fit] | –
32 | Cn1c(N)c(C(=O)COC(=O)c2cc(-c3ccccc3)nc3ccccc23)c(=O)n(Cc2ccccc2)c1=O | inconclusive: 79.4 µM [inhibitor, single point] | –
33 | CC(=O)N1CCOc2ccc(S(=O)(=O)NCCc3cccc(C)c3)cc21 | – | inactive: -2.34% [at 102 µM]
34 | Cc1ccc(-c2nn(-c3cc(N4CCNCC4)ccc3[N+](=O)[O-])c(=O)c3ccccc23)cc1 | active: 31.6 µM | –
35 | Cc1cc(C)c(C(=O)CSc2nnc(N)s2)cc1C | inconclusive: 50.1 µM [inhibitor, partial curve] | –
36 | CCOc1ccc(C(C)=O)cc1CN1C(=O)C(=O)N(CC)C1=O | – | inactive: 0.688% [at 102 µM]
37 | O=C(NCCCN1CCCC1)[C@H](CSCc1ccccc1)N1Cc2ccccc2C1=O | inconclusive: 50.1 µM [inhibitor, partial curve, poor fit] | –
38 | Cc1nc(N=Nc2cc(S(=O)(=O)O)c3cc([N+](=O)[O-])cc(S(=O)(=O)O)c3c2)c(COP(=O)(O)O)c(C=O)c1O | active: 6.31 µM and active: 224 nM and active: 3.55 µM | –
39 | Cc1ccc(Nc2nc(-c3ccncc3)cs2)cc1 | inconclusive: 79.4 µM [inhibitor, partial curve, poor fit] | –
40 | CCNC(=S)Nc1ccc(S(=O)(=O)Nc2cc(C)nc(C)n2)cc1 | – | inactive: -48.6% [at 102 µM]
41 | COc1ccc(OCC(=O)OCC(=O)NCC2CCCCC2)cc1 | inconclusive: 1.12 µM [inhibitor, single point] | –
42 | CCc1sc(NC(=O)CCC(=O)O)nc1-c1cc2ccccc2oc1=O | inconclusive: 89.1 µM [inhibitor, partial curve, poor fit] | –
43 | CCNc1nc(NCC)nc(N/N=C/c2ccc([N+](=O)[O-])o2)n1 | active: 1.78 µM | –
44 | COc1ccc(CC(=O)Nc2ccc(S(=O)(=O)N3CCCC3)cc2)c(OC)c1 | – | inconclusive: -101% [inhibitor] [at 2.33 µM]

Row | SMILES | Potency | activity, negative = inhibition
45 | CCN(CC)S(=O)(=O)c1ccc(C)c(NC(=S)N2CCN(Cc3ccc4c(c3)OCO4)CC2)c1 | inconclusive: 44.7 µM [inhibitor, partial curve, poor fit] | –
46 | Cn1c(=O)cc(SCC(=O)NCC2CCCO2)c2ccccc21 (stereo not given) | inconclusive: 0.282 µM [inhibitor, full curve, poor fit] | –
47 | O=C(NCC1CCCO1)C(c1cccs1)N(Cc1ccccc1)C(=O)c1ccc(-c2ccccc2)[nH]1 (stereo not given) | inconclusive: 22.4 µM [inhibitor, single point] | –
48 | Cc1ccc(S(=O)(=O)Nc2cc(Cl)ccc2-n2cncn2)cc1 | inconclusive: 0.891 µM [inhibitor, full curve, poor fit] | –
49 | O=C(COC(=O)CNC(=O)c1ccc(Br)cc1)Nc1nnc(-c2ccccc2)o1 | inconclusive: 44.7 µM [inhibitor, partial curve] | –
50 | CCOC(=O)C1=C(C)N=c2s/c(=C\c3ccc(O)c([N+](=O)[O-])c3)c(=O)n2C1c1ccccc1OC (stereo not given) | active: 14.1 µM | –
51 | Cc1ccc(C2=N/C(=C/N3CCOCC3)C(=O)O2)cc1 | – | inactive: 17.1%
52 | CCOC(=O)c1ccc(S(=O)(=O)N2CCN(CCC#N)CC2)cc1 | inconclusive: 0.891 µM [inhibitor, full curve, poor fit] | –
53 | CC(C(=O)Nc1cccc([N+](=O)[O-])c1)N1CCN(C/C=C/c2ccccc2)CC1 (stereo not given) | inconclusive: 89.1 µM [inhibitor, single point] | –
54 | CC1=C(C(=O)Nc2ccccc2Cl)C(c2cccc(O)c2)n2ncnc2N1 (stereo not given) | – | inactive: -33.6%
55 | Fc1ccc(Nc2ncnc3sc4c(c23)CCC4)cc1 | inconclusive: 12.6 µM [inhibitor, partial curve, poor fit] | –
56 | O=C(Cc1ccccc1)NN1C(=O)/C(=C/c2ccccc2C(=O)O)SC1=S | inconclusive: 20 µM [inhibitor, partial curve, poor fit] | –
57 | O=C(O)c1cccc(CSc2nnc(Cc3ccccc3)o2)c1 | inconclusive: 1.58 µM [inhibitor, full curve, poor fit] | –
58 | Cc1cc(NC(=O)c2ccc3c(c2)N(Cc2cccc(Cl)c2)C(=O)c2ccccc2S3(=O)=O)ccc1Br | – | inactive: -41.6%
59 | CC(C)Cc1cc(-c2ccco2)c(C#N)c(N)n1 | inconclusive: 28.2 µM [inhibitor, single point] | –
60 | COc1ccc(N=C2C(=O)N3c4c(cccc42)C(C)=CC3(C)C)cc1 | active: 10 µM | –
61 | Nc1nc(SCC(=O)c2cccc([N+](=O)[O-])c2)n[nH]1 | active: 2.51 µM | –
62 | CCOC(=O)C1CCN(S(=O)(=O)c2cn(C)c(C)n2)CC1 | inconclusive: 5.01 µM [inhibitor, full curve, poor fit] | –
63 | Cn1c(NC(=O)c2cc(-c3ccc4c(c3)OCO4)nc3ccccc23)cc(=O)n(C)c1=O | – | inactive: -7.22% [at 102 µM]
64 | COCCCN1C(=O)C(=O)/C(=C(/O)c2ccc(OC(C)C)cc2)C1c1ccncc1 (stereo not given) | active: 44.7 µM | –
65 | O=C(c1ccco1)N1CCN(C2CCCC2)CC1 | – | inconclusive: -145% [inhibitor]
